Several values for one entry are separate records, joined by “and”; a condition that tells them apart may be missing. Equal values may be shown once. About 6,400 (1.6%) of roughly 410,000 compounds were called active. The inconclusive results got no clear call from the source; some entries with a clear call stand among them for comparison. The call rests on the fitted dose curve; in most records, active means well fitted inhibition curve with a large enough effect; inconclusive means small, poorly fitted or top-dose-only effect; inactive means no such curve, though single readings can be large or run the other way. Potencies of inconclusive entries are doubtful fits and often do not repeat.
Target: Glucagon-like peptide 1 receptor (Homo sapiens) (UniProt P43220)
Assay: qHTS of GLP-1 Receptor Inverse Agonists (Inhibition Mode); further: nearly all actives have a fitted effect of over 55% in size
Conditions: HEK293 GLP-1R CRE-luciferase, luminescence, 24 h, GLP-1R form is constitutively active; activity change, negative = inhibition: at 38.3 µM (top of the series) unless noted
In short: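 Readout was luciferase luminescence, measured 12 min after detection reagent at room temperature. Beforehand, GLP-1R reporter HEK293 cells had sat 12 h, then received compounds for 24 hr at 37 deg C.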
On the % scale 0 is the no-effect control and ±100 the full control effect; potency means the concentration at half of the fitted maximal effect; tags describe the fitted curve by direction and shape.

Chain of UniProt P43220 (P43220 whole entry, looked up): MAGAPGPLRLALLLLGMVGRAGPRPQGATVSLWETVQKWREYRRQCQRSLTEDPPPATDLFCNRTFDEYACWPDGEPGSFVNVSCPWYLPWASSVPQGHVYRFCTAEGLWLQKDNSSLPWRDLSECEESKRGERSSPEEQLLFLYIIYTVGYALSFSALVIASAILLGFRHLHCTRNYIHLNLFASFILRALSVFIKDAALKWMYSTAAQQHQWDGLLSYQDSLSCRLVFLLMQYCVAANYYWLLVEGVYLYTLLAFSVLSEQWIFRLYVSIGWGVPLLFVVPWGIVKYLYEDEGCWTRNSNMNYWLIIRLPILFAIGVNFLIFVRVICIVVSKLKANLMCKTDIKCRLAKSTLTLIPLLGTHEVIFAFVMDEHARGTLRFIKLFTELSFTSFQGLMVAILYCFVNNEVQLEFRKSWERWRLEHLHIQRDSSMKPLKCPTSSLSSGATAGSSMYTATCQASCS

SMILES | activity change, negative = inhibition | Potency
O=C(CN1CCSc2ccccc21)N1CCN(c2cccc(Cl)c2)CC1 | inactive: -14.8% | 
Cc1ccc(-n2ncc3c(NC4CCCCC4)ncnc32)cc1 |  | active: 10 µM
Cc1ccc(S(=O)(=O)N(C(=O)c2ccncc2)c2ccc(OC(=O)c3ccncc3)cc2)c(C)c1 |  | inconclusive: 11.2 µM [inhibitor, partial curve, poor fit]
O=C(c1ccco1)N1CCN(S(=O)(=O)c2ccc(C3CCCCC3)cc2)CC1 | inactive: 19% | 
Cc1cc2c(NC(=O)Nc3ccc(C(C)(C)C)cc3)cccc2nn1 |  | inconclusive: 22.4 µM [inhibitor, single point]
CC(C)c1cc(C(C)C)c(S(=O)(=O)NC(c2ccccn2)C23CC2C3)c(C(C)C)c1 (stereo not drawn) |  | inconclusive: 14.1 µM [inhibitor, single point]
CCc1c(C)nc2ncnn2c1Nc1ccc(C)c(C)c1 |  | inconclusive: 11.2 µM [inhibitor, partial curve, poor fit]
CCOC(=O)C(=O)N(C)c1c(CC)nc2c(OCCC3CCCCC3)cccn12 |  | inconclusive: 10 µM [inhibitor, partial curve, poor fit]
O=C(CCNC(=O)c1ccc(Cl)cc1)Nc1ccccc1N1CCCC1 |  | inconclusive: 31.6 µM [inhibitor, partial curve, poor fit]
Oc1[nH]c(N=C2N=c3ccccc3=N2)c2ccccc12 | inactive: -46.1% | 
CCCCn1cnc2c(SCc3ccccc3F)nc(N)nc21 |  | inconclusive: 28.2 µM [inhibitor, single point]
COc1ccc(CCNC(=O)CC(c2ccccc2)c2cc(C)ccc2O)cc1OC (stereo not drawn) |  | inconclusive: 28.2 µM [inhibitor, single point]
CCN(CC(=O)NCc1ccc(F)cc1)C(=O)c1ccc(COc2ccccc2)cc1 |  | inconclusive: 28.2 µM [inhibitor, single point]
N=c1c2c(-c3ccccc3)c(-c3ccccc3)n(Cc3ccco3)c2ncn1Cc1ccccc1 |  | inconclusive: 28.2 µM [inhibitor, single point]
COc1ccc(CNCc2c(C(=O)O)c(C)n(Cc3ccc(Cl)cc3)c2C)c(OC)c1 | inactive: 0.566% | 
Cc1ccc2c(c1)c1c(c(=O)n(-c3ccccc3C)c(=O)n1CC(=O)NCCC1=CCCCC1)n2C | inactive: 2.31% | 
Cc1ccc(CNC(=O)c2cncc(Br)c2)cc1 |  | inconclusive: 15.8 µM [inhibitor, single point]
COc1ccc(CC(=O)NC(C)c2ccc3ccccc3c2)cc1 (stereo not drawn) |  | inconclusive: 11.2 µM [inhibitor, partial curve, poor fit]
Cc1ccc(CN2CCSc3ccc(C(=O)NCCCN4CCOCC4)cc32)cc1 |  | inconclusive: 8.91 µM [inhibitor, partial curve, poor fit]
COc1ccc(CC2(CO)CCN(Cc3cnn(-c4ccccc4OC)c3)CC2)cc1 |  | inconclusive: 12.6 µM [inhibitor, partial curve, poor fit]
Cc1cc(OCCN2CCOCC2)ccc1C(C)C |  | inconclusive: 0.501 µM [inhibitor, full curve, poor fit]

SMILES | activity change, negative = inhibition | Potency
CCC(C)NC(=O)c1sc2nc(C)c(C(=O)Nc3ccc(C)cc3C)c(-c3ccc(Cl)cc3)c2c1N (stereo not drawn) |  | inconclusive: 3.16 µM [inhibitor, partial curve, poor fit]
O=C(NCc1ccccc1Cl)c1cc2c(s1)CS(=O)(=O)C2 | inactive: 4.87% | 
CCOc1ccc(CNC(=O)Cn2nc(C)c3nn(-c4ccc(Cl)cc4)c(C)c3c2=O)cc1OC | inactive: -2.46% | 
COC(=O)C1=CO[C@@H](C)[C@H]2CN3CCc4c([nH]c5ccccc45)[C@@H]3C[C@H]12 |  | inconclusive: 28.2 µM [inhibitor, single point]
Cc1ccc(C)c(S(=O)(=O)N2CCC3(CC2)OCCN3S(=O)(=O)c2cccs2)c1 |  | inconclusive: 12.6 µM [inhibitor, single point]
O=C1[C@H]2[C@@H](c3ccc(C(F)(F)F)cc3)N[C@]3(CCCN(Cc4ccc(F)cc4)C3=O)[C@H]2C(=O)N1Cc1ccccc1 |  | active: 8.91 µM
C=CCN(Cc1nc(-c2ccccc2)no1)C(=O)c1ccoc1C |  | inconclusive: 11.2 µM [inhibitor, single point]
CCN(CC(=O)Nc1c(F)cccc1F)C(=O)CCSc1ccc(F)cc1 |  | inconclusive: 11.2 µM [inhibitor, single point]
COc1cccc(N2CCN(C(=O)c3cc4c(=O)n(Cc5ccccc5)ccc4nc3C)CC2)c1 |  | inconclusive: 28.2 µM [inhibitor, single point] and inconclusive: 11.2 µM [inhibitor, single point]
CCn1cc(CN2CCN(Cc3ccccc3)C(CCO)C2)c2ccccc21 (stereo not drawn) |  | active: 10 µM
Cc1ccc(C)c(N2CCN(S(=O)(=O)c3ccc4c(c3)C(C)(C)C(=O)N4C)CC2)c1 |  | inconclusive: 28.2 µM [inhibitor, single point]
COc1cc(C)ccc1OCCCn1c(-c2ccc(Cl)cc2)nc2ccccc2c1=O | inactive: 5.63% | 
CC(=O)c1ccc(NC(=O)C(C)OC(=O)/C=C/c2ccco2)cc1 (stereo not drawn) |  | inconclusive: 7.08 µM [inhibitor, partial curve, poor fit]
COc1ccc(-c2noc(-c3ccc(N4CCN(c5ccc(OC)cc5)CC4)c([N+](=O)[O-])c3)n2)cc1 | inactive: 13.7% | 
CC(C)[C@H](NC(=O)OCc1ccccc1)C(=O)OCC(=O)N1C(C)CCCC1C (stereo partly drawn) |  | inconclusive: 14.1 µM [inhibitor, single point]
COc1ccc(NC(=O)N(CCC(C)C)C(C)c2ccccn2)c(OC)c1 (stereo not drawn) |  | inconclusive: 28.2 µM [inhibitor, single point]
CCN(CC)S(=O)(=O)c1ccc(N(C)Cc2ccc(C(F)(F)F)cc2)nc1 |  | inconclusive: 8.91 µM [inhibitor, partial curve, poor fit]
O=C(Nc1cc(C(F)(F)F)cc(C(F)(F)F)c1)[C@H]1O[C@@H](n2ccc(=O)[nH]c2=O)[C@H](O)[C@@H]1O |  | inconclusive: 14.1 µM [inhibitor, single point]
COCCCN1C(=O)C(=O)/C(=C(/O)c2ccc(S(=O)(=O)N3CCCCC3)cc2)C1c1ccc(O)c(OC)c1 (stereo not drawn) | inactive: 0.313% | 
CC(C)S(=O)(=O)c1oc(-c2ccc(F)cc2)nc1S(=O)(=O)c1ccccc1 |  | inconclusive: 22.4 µM [inhibitor, single point]
CN1CCN(c2oc(/C=C/c3ccc(F)cc3)nc2C#N)CC1 | inactive: 5.64% | 

SMILES | activity change, negative = inhibition | Potency
CCOC(=O)C1(Cc2ccccc2)CCCCCC1=O (stereo not drawn) |  | inconclusive: 10 µM [inhibitor, single point]
O=C(Nc1cccc(Br)c1)c1ccccc1-c1ccccc1 |  | inconclusive: 12.6 µM [inhibitor, partial curve, poor fit]
COc1ccc(CCN2C(=O)c3[nH]nc(-c4ccccc4O)c3C2c2cccc(OC)c2)cc1 (stereo not drawn) |  | inconclusive: 10 µM [inhibitor, partial curve, poor fit]
CCN1CCN(c2ccc(S(=O)(=O)N3CCCCC3)cc2NC(=O)c2cccc(C)c2[N+](=O)[O-])CC1 |  | inconclusive: 14.1 µM [inhibitor, single point]
Cc1[nH]c2ccccc2c1C(c1ccccc1)c1cccs1 (stereo not drawn) |  | inconclusive: 11.2 µM [inhibitor, partial curve, poor fit]
O=C(CC1Sc2ncnn2C1=O)Nc1ccc(Cl)cc1 (stereo not drawn) | inactive: 0.0945% | 
Cc1ccc(CCNC(=O)c2nnc(CS(=O)(=O)c3ccccc3)o2)cc1 | inactive: 14% | 
COc1ccccc1CNC(=O)c1ccccc1OCc1ccc(F)cc1 |  | inconclusive: 12.6 µM [inhibitor, partial curve, poor fit]
CCN1CCN(CCCNC(=O)c2ccc3c(c2)N(Cc2ccccc2)CCS3)CC1 |  | inconclusive: 6.31 µM [inhibitor, partial curve, poor fit]
CCc1cc(C(=O)NNC(=S)Nc2ccccc2C)cs1 | inactive: -18.3% | 
Cc1cccc(NC(=S)N2CCCC(c3nc4ccccc4[nH]3)C2)c1 (stereo not drawn) |  | inconclusive: 12.6 µM [inhibitor, partial curve, poor fit]
Cc1cc(C(F)(F)F)nn1-c1nc(-c2ccccc2)cc(C(F)(F)F)n1 |  | inconclusive: 28.2 µM [inhibitor, single point]
COc1ccc(N2CCN(CC(=O)c3ccc(O)cc3O)CC2)cc1 | inactive: 7.67% | 
Cc1cc(C)c(S(=O)(=O)N2CCCCC2)c(C)c1N(C)S(=O)(=O)c1ccc(Cl)cc1 |  | inconclusive: 8.91 µM [inhibitor, partial curve, poor fit]
Cc1cc(=O)n(CC(=O)Nc2ccc([N+](=O)[O-])cc2)c(-n2nc(C)cc2C)n1 | inactive: 9.51% | 
COc1cccc(CNC(=O)c2ccc(C)c(NC3=NC4CS(=O)(=O)CC4S3)c2)c1 (stereo not drawn) | inactive: 2.52% | 
O=C(COC(=O)C1(c2ccc(Cl)cc2)CCCC1)NCc1ccco1 |  | inconclusive: 11.2 µM [inhibitor, partial curve, poor fit]
COc1ccc(Br)cc1CN(C)C(=O)CNC(=O)c1ccc2ccccc2c1 |  | inconclusive: 10 µM [inhibitor, partial curve, poor fit]
CC(C)C1C(=O)Nc2ccc(S(=O)(=O)NCc3ccc(Cl)cc3)cc21 (stereo not drawn) |  | inconclusive: 8.91 µM [inhibitor, partial curve, poor fit]
O=S(=O)(NCCc1ccccc1)c1ccc(Cl)nc1 |  | inconclusive: 12.6 µM [inhibitor, single point]
CN(Cc1ccccc1)c1ccc(-c2nc(-c3ccco3)no2)cc1[N+](=O)[O-] | inactive: 18.3% | 

— PubChem BioAssay AID624417 (National Center for Advancing Translational Sciences (NCATS), 2012)
